According to ChEMBL document CHEMBL4888484, “Replenishing the malaria drug discovery pipeline: Screening and hit evaluation of the MMV Hit Generation Library 1 (HGL1) against asexual blood stage Plasmodium falciparum ,using a nano luciferase reporter read-out” (2022):
Out of some 4,800 compounds screened, about 420 (8.8%) showed an effect of 50% or more. The list shows a part of the results.

system: Plasmodium falciparum; experiment: Confirmatory screen in NF54 nanoGlo assay, in single point, at 2uM, 72h; format: functional, Erythrocyte; conditions: timepoint 72 hour

| SMILES | % Inhibition [%] |
| --- | --- |
| Cc1cc(S(=O)(=O)NC(=O)c2ccnc(C3CCCC3)n2)c(C)s1 | -2 |
| CC(C)(C)OC(=O)N1CCc2ncn(Cc3ccc(F)cc3)c(=O)c2C1 | -7 |
| O=C(Nc1nccs1)N1CC(O)CC1CO (stereo unspecified) | -16 |
| OC1CCC2CN(c3ncc(Cl)c(N4CC5CCC(O)C5C4)n3)CC12 (stereo unspecified) | -4 |
| CC(=O)Nc1ccc(-c2cn3c4ccccc4ccc3[n+]2C)cc1 | 76 |
| CCN(C(=O)[C@H]1CCN(C)[C@@H](C)C1)C1CCCC1 | 6 |
| CCc1ccc2ncc(C(=O)c3ccc(Cl)cc3)c(O)c2c1 | 19 |
| CN(C)CCN(C)c1ccc(Br)cc1NCc1cncn1C | 16 |
| CS(=O)(=O)N1CC[C@H](CC(=O)Nc2ccccc2)C1 | -14 |
| CC[C@@H](CO)NC(=O)Nc1ccc(Cl)cc1 | 6 |
| Cc1c(-c2ccccc2OC(=O)c2ccccc2)cnn1-c1ccccc1 | -4 |
| COc1ccccc1OCC(=O)Nc1ccccc1-n1cnnc1C | 5 |
| Cc1nc2cc(-c3ccc(Cl)c(Cl)c3)nn2c(N)c1-c1ccccc1 | -2 |
| CCc1ccc(O[C@@H](C)C(=O)OC)c(COc2ccc(-n3c(=O)cc(C(F)(F)F)n(C)c3=O)cc2)c1 | -5 |
| COc1cccc(-c2nc(C)c(C(=O)Nc3nc(C(C)C)n[nH]3)s2)c1 | 74 |
| Cc1nnc2ccc(S(=O)(=O)N(CC#N)c3ccccc3)cn12 | 5 |
| C[C@@]1(C(=O)NCc2ccccc2)Cn2nc(-c3ccccc3)cc2C(=O)N1c1ccc2c(c1)OCCO2 | 58 |
| CC[C@H]1Cn2c(C(=O)NCc3ccc(C)cc3)cc3c(Cl)ccc(c32)O1 | -12 |
| c1cc(-c2noc(C3CC3)n2)nc(N2CCNCC2)n1 | -12 |
| O=C1Nc2ccccc2[C@@]12Nc1ccccc1CO2 | 4 |
| O=C(C1CC1c1ccccc1)N(c1ccc(F)cn1)C1CCOCC1 (stereo unspecified) | 3 |
| Cc1oc(=S)n2c1C[C@@H](c1ccccc1)N(Cc1ccccc1)C2 | -15 |

| SMILES | % Inhibition [%] |
| --- | --- |
| COc1cccc(CC(=O)N2CCC[C@@]3(C2)Nc2ccccc2N=C3NC(C)(C)C)c1 | -1 |
| CCC(=O)N1CC[C@H](N(C(C)=O)C2CCOCC2)C1 | -12 |
| CCc1sc(NC(=O)CC#N)nc1-c1ccc(Cc2ccccc2)cc1 | -11 |
| CCn1c(=O)c(N2CCN(C(=O)Nc3ccc(OC)cc3OC)CC2)nc2cccnc21 | -15 |
| CN(Cc1ccccc1)C(=O)C[C@H]1CCN(C(=O)NC2CCCC2)C1 | -1 |
| C[n+]1ccc(-c2ncc(-c3ccccc3)o2)c2ccccc21 | 75 |
| CC1(C)CCC[C@@H]1NCc1nccc(N)n1 | 2 |
| O=C(Cc1c[nH]c2ccccc12)Nc1ccc(Cl)c2ncccc12 | 5 |
| O=C(c1cc(-c2ccco2)n[nH]1)N1CCC(N2CCC(Oc3ccccc3F)CC2)CC1 | 41 |
| CC[C@](C)(NCCc1c[nH]c2ccccc12)c1nnnn1CCOC | -2 |
| O=C(O)C1CC=CCC1C(=O)N1CCCCCC1 (stereo unspecified) | 2 |
| CC(C)N(C)S(=O)(=O)Nc1ccc(Br)cc1O | -2 |
| CCS(=O)(=O)c1ccc(N2CC[C@H](C(N)=O)C2)cc1 | -1 |
| CCCNCc1cc(Cl)ccc1OC | -3 |
| Cc1cccc(CNc2cc([C@H]3C[C@@H](N)C3)nc(N3CCCC3)n2)c1 | 22 |
| CC1CN(c2nc(-c3ccccc3)nnc2-c2ccccc2)CC(C)O1 (stereo unspecified) | 9 |
| Cc1cc(C)c(C)c(S(=O)(=O)N2CCn3c(nnc3[C@H]3CCN(C(C)C)C3)C2)c1C | -4 |
| O=C(Nc1ccc(N2CCn3c(nc4ccccc43)C2)cc1)c1ccc(F)cc1 | 9 |
| Cn1c(N2CCC[C@H]2c2ccc3c(c2)OCCCO3)c(C#N)c(=O)n(C)c1=O | 5 |
| Cc1ccc(C)c(-n2cnc(=O)n2[C@H]2CCN(C3CC3)C2=O)c1 | 46 |
| Cc1nc2ccnn2cc1C(=O)Nc1ccc(CCC(C)C)cn1 | -5 |
| CCc1c(C)nn(-c2nncn2N)c1C | -1 |

| SMILES | % Inhibition [%] |
| --- | --- |
| CCOC(=O)c1cn([C@H]2CC(=O)N(c3ccccc3)C2=O)nn1 | 6 |
| COc1ccccc1N(CC(=O)NCCN1CCOCC1)S(=O)(=O)c1ccc(C)cc1 | -1 |
| CN(C)c1cccc(C(=O)N2CCN(c3ncc(F)cn3)C(=O)C2)c1 | -2 |
| Cc1ccc(NC(=O)c2c(Cl)cccc2Cl)c2c1CC(C)(C)O2 | -8 |
| CN(C(=O)C1CC=CC1)c1ccc(NC(=O)C2CC=CC2)cc1Cl | -11 |
| CCc1onc(C)c1NCc1cnc(C(C)(C)C)s1 | -5 |
| O=C(CCc1nc(CN2CCN(S(=O)(=O)c3ccc(F)cc3)CC2)no1)N1CCCC1 | -4 |
| C#C[C@H](C)OC(=O)c1cccc(Nc2cnccn2)c1 | 4 |
| CCc1nc2c(C(=O)N3CCOc4c(C)cc(C)cc43)ccnc2[nH]1 | 72 |
| CNC(=O)c1cc(Br)cnc1NC | 3 |
| O=C(NCCc1cnc2c(Cl)cnn2c1)[C@@H]1CC=CCC1 | 3 |
| CC1CCCCC1OCCN1CCOCC1C(N)=O (stereo unspecified) | 1 |
| CC(C)N(C(=O)c1cc(O)nc2ccccc12)C1CC1 | -2 |
| COc1ccc(C(=O)c2c[nH]c(C(=O)NC[C@H]3CCCO3)c2)cc1 | 2 |
| O=C(CC(O)c1cccc(F)c1)NCCC1CCCCO1 (stereo unspecified) | -1 |
| Cc1ccc(C(=O)c2ccc(NC(=O)c3ncn(-c4ccc(Cl)cc4)n3)cc2)cc1 | -6 |
| Cc1cnccc1NCCNC1CCN(c2ccc3c(c2)CCC3)CC1 | 72 |
| CC[C@@](C)(CCO)NCc1nccn1C | 1 |
| Cc1nc(C2CC2)nc(N2CCN(C(=O)N(C)C)CC2)c1Cc1ccccc1F | -8 |
| CCOCC(=O)Nc1ccc(OC(F)(F)F)cc1 | -17 |
| CC(C)c1ccc(N2C(=O)[C@H](CC(=O)N3CCN(C)CC3)N=C2O)cc1 | -2 |
| O=C(N[C@H]1CCN(CC2CCCC2)C1)c1nccc2cccnc12 | -5 |

| SMILES | % Inhibition [%] |
| --- | --- |
| Cc1cc(C)cc(CN2CCCN(c3ccc(C)cc3NC(=O)Cc3ccc(F)cc3)C2=O)c1 | 11 |
| COC(=O)CNCc1ccccc1Cl | -1 |
| CC(C)n1cc(S(=O)(=O)Nc2cc(F)ccc2Cl)c2cccnc21 | 13 |
| Cc1nc(C(=O)NC[C@H]2CN(c3nncs3)CCO2)c(C)s1 | -9 |
| O=C(CN1CCN(Cc2ccc(F)cc2)C1=O)NC1CCCCCCC1 | 4 |
| O=c1[nH]c2ccsc2c(=O)n1CCc1ccccc1 | -16 |
| NCc1ccc(O)c(Br)c1 | 2 |
| Cc1nn(C)cc1C1C(C(=O)Nc2ccccc2)C(=O)CC(C)(O)C1C(=O)Nc1ccccc1 (stereo unspecified) | -4 |
| CC1(C)CC2=CC3(C)CC(C)(C)CC4(C3)C2=C(C1)N(c1ccccc1)C(=O)N4C(=O)c1ccccc1 (stereo unspecified) | -15 |
| COc1ccc(-c2cc3c(N4CCN(Cc5ccc6c(c5)OCO6)CC4)nccn3n2)cc1OC | -2 |
| O=C1C2C3C=CC(C3=C(c3ccccc3)c3ccccc3)C2C(=O)N1CCO (stereo unspecified) | -5 |
| NC(=O)c1ccc(C(F)(F)F)n(C[C@H](O)c2cc(Cl)ccc2Cl)c1=O | 63 |
| Cc1nnc(COC(=O)c2cc3ccc(C(C)(C)C)cc3[nH]2)o1 | 3 |
| C[C@H](Oc1ccc(F)cc1)C(=O)N1CCC(c2nc3cc(Cl)ccc3s2)CC1 | -4 |
| CC(C)C(CNCc1nnn(C)n1)C(C)C | -4 |
| Cc1cc(Cn2c(=O)n(Cc3ccccc3)c3ccncc32)on1 | -3 |
| CC(O)CC(C)(C)CNC1CCCc2occc21 (stereo unspecified) | -12 |
| COc1ccccc1-n1cnc2cc(C(=O)N3CCCC3)ccc2c1=O | -4 |
| CC(C)(C)NC(=O)c1ncc(Br)cc1Br | -2 |
| O=c1[nH]c(N2CCCC2)nc2ccccc12 | -4 |
| Cc1ccc(Oc2cc(C#N)c(C#N)cc2N2CCOCC2)cc1C | -6 |
| CC[n+]1ccc(-c2ncc(-c3ccc(C(C)(C)C)cc3)o2)cc1 | 63 |

| SMILES | % Inhibition [%] |
| --- | --- |
| C[C@H]1Cc2cc(C(=O)NCc3nc(C(F)(F)F)n[nH]3)ccc2O1 | 39 |
| CN1CC(c2ccccc2Cl)C2(COc3ccccc3C2=O)C12C(=O)Nc1ccccc12 (stereo unspecified) | 3 |
| Cc1nn(C)cc1-c1n[nH]cc1Br | -2 |
| COc1cccc(C(=O)NCC(=O)N2CC=C(c3ccccc3)C2)c1 | 6 |
| CC(C)(C)NC(=O)CCc1ccccc1 | -7 |
| Cc1c[nH]c(=O)n1-c1ccc(C(=O)NCCc2cc(F)cc(F)c2)cc1 | -1 |
| CCN(CC)CCN(C(=O)C1CCN(S(=O)(=O)c2ccc(Cl)cc2)CC1)c1nc2c(C)ccc(Cl)c2s1 | 24 |
| Cc1ccc(-n2c(=O)c3ccccc3n(CC(=O)NCc3cccnc3)c2=O)cc1Cl | -9 |
| O=C(Cn1nc(C2CC2)nc1C1CC1)N1CCOCC1 | 9 |
| Cc1c(NC(=O)c2ccc(-c3cccc(F)c3)o2)cccc1-c1nc2ncccc2o1 | -8 |
| Cc1ccc(NC(=O)N2CCC(C(NC(=O)c3ccccc3)C(=O)N3CCCCC3C)CC2)cc1 (stereo unspecified) | -4 |
| Cc1ccc(CN2CCS(=O)(=O)CC2)o1 | -11 |
| Nc1ncc(C(=O)N2CCC3(CCCCCC3)C2)s1 | 98 |
| Cc1cc(N2CCC(O)CC2)nc(N2CCC(O)CC2)c1C#N | -4 |
| C[C@@H](N)C(=O)N1CCc2cc(-c3ccccc3)ccc21 | 5 |
| CC1CN(CC(=O)NCCC#N)C(C)CO1 (stereo unspecified) | 4 |
| CCN1CCC2CCC(C1)N2C(=O)Nc1ccc(OC2CCC2)c(F)c1 (stereo unspecified) | -5 |
| Cc1noc(-c2cc(=O)[nH]c3ccccc23)n1 | 1 |
